The structures appear in SMILES notation.

Data on nine compounds can be found in patent US9603889B2, “IAP antagonists” (BRISTOL-MYERS SQUIBB COMPANY, priority 2012, dated 2017).

The target of this experiment is XIAP BIR2 (His-BIR2 (124-240/C202A/C213G)) (Homo sapiens (Human), UniProt P98170, C202A/C213G). To be noted: read-out: XIAP-BIR2 AlphaScreen IC50; 50 nM His-BIR2 (124-240/C202A/C213G), 50 nM Biotinylated SMAC peptide.
Consider `CN[C@@H](C)C(=O)N[C@H](C(=O)N1C[C@@H](NC(=O)c2ccc(CN(Cc3ccccc3)C(=O)[C@@H]3Cc4ccccc4CN3C(=O)[C@@H](NC(=O)[C@H](C)NC)C(C)(C)C)cc2)C[C@H]1C(=O)N[C@@H]1CCCc2ccccc21)C(C)(C)C` [Example 13, (S)-N-Benzyl-2-((S)-3,3-dimethyl-2-((S)-2-(methylamino)propanamido)butanoyl)-N-(4-(((3S,5S)-1-((S)-3,3-dimethyl-2-((S)-2-(methylamino)propanamido)butanoyl)-5-(((R)-1,2,3,4-tetrahydro-naphthalen-1-yl)carbamoyl)pyrrolidin-3-yl)carbamoyl)benzyl)-1,2,3,4-tetra-hydroisoquinoline-3-carboxamide], for which the IC50 stood at 600 nM.
Next, `CN[C@@H](C)C(=O)N[C@H](C(=O)N1Cc2ccccc2C[C@H]1CN(C(=O)c1ccc(C(=O)N[C@H]2C[C@@H](C(=O)N[C@@H]3CCCc4ccccc43)N(C(=O)[C@@H](NC(=O)[C@H](C)NC)C(C)(C)C)C2)cc1)[C@H](C)c1ccc2ccccc2c1)C(C)(C)C` [Example 31, N^1-(((S)-2-((S)-3,3-Dimethyl-2-((S)-2-(methylamino)propanamido)butanoyl)-1,2,3,4-tetrahydro-isoquinolin-3-yl)methyl)-N^4-((3S,5S)-1-((S)-3,3-dimethyl-2-((S)-2-(methyl-amino)propanamido)butanoyl)-5-(((R)-1,2,3,4-tetrahydro-naphthalen-1-yl)carbamoyl)pyrrolidin-3-yl)-N^1-((R)-1-(naphthalen-2-yl)ethyl) terephthalamide]: 1690 nM; `CN[C@@H](C)C(=O)N[C@H](C(=O)N1Cc2ccccc2C[C@H]1CN(CCc1ccccc1)C(=O)c1ccc(C(=O)N[C@H]2C[C@@H](C(=O)N[C@@H]3CCCc4ccccc43)N(C(=O)[C@@H](NC(=O)[C@H](C)NC)C(C)(C)C)C2)cc1)C(C)(C)C` [Example 10, N^1-(((S)-2-((S)-3,3-Dimethyl-2-((S)-2-(methylamino)propanamido)butanoyl)-1,2,3,4-tetrahydroisoquinolin-3-yl)methyl)-N^4-((3S,5S)-1-((S)-3,3-dimethyl-2-((S)-2-(methylamino)propanamido)butanoyl)-5-(((R)-1,2,3,4-tetrahydronaphthalen-1-yl)carbamoyl)pyrrolidin-3-yl)-N^1-phenethylterephthalamide]: 410 nM.
As to `CN[C@@H](C)C(=O)N[C@H](C(=O)N1C[C@@H](NC(=O)c2ccc(CN(C(=O)[C@@H]3Cc4ccccc4CN3C(=O)[C@@H](NC(=O)[C@H](C)NC)C(C)(C)C)[C@H](C)c3cccc(OC)c3)cc2)C[C@H]1C(=O)N[C@@H]1CCCc2ccccc21)C(C)(C)C` [Example 3, (S)-2-((S)-3,3-Dimethyl-2-((S)-2-(methylamino)propanamido)butanoyl)-N-(4-(((3S,5S)-1-((S)-3,3-dimethyl-2-((S)-2-(methylamino)propanamido)butanoyl)-5-(((R)-1,2,3,4-tetrahydronaphthalen-1-yl)carbamoyl)pyrrolidin-3-yl)carbamoyl)benzyl)-N-((R)-1-(3-methoxyphenyl)ethyl)-1,2,3,4-tetrahydroisoquinoline-3-carboxamide], the IC50 was determined as 120 nM.
The figure for `CN[C@@H](C)C(=O)N[C@H](C(=O)N1Cc2ccccc2C[C@H]1CN(C(=O)c1ccc(C(=O)N[C@H]2C[C@@H](C(=O)N[C@@H]3CCCc4ccccc43)N(C(=O)[C@@H](NC(=O)[C@H](C)NC)C(C)(C)C)C2)cc1)[C@H](C)Cc1ccc2ccccc2c1)C(C)(C)C` [Example 30, N^1-(((S)-2-((S)-3,3-Dimethyl-2-((S)-2-(methylamino)propanamido)butanoyl)-1,2,3,4-tetrahydro-isoquinolin-3-yl)methyl)-N^4-((3S,5S)-1-((S)-3,3-dimethyl-2-((S)-2-(methylamino)propanamido)butanoyl)-5-(((R)-1,2,3,4-tetrahydro-naphthalen-1-yl)carbamoyl)pyrrolidin-3-yl)-N^1-((R)-1-(naphthalen-2-yl)propan-2-yl) terephthalamide] is 760 nM; for `CN[C@@H](C)C(=O)N[C@H](C(=O)N1CCc2ccccc2[C@H]1C(=O)N(Cc1ccc(C(=O)N[C@H]2C[C@@H](C(=O)N[C@@H]3CCCc4ccccc43)N(C(=O)[C@@H](NC(=O)[C@H](C)NC)C(C)(C)C)C2)cc1)[C@H](C)c1ccccc1F)C(C)(C)C` [Example 19, (S)-2-((S)-3,3-Dimethyl-2-((S)-2-(methylamino)propanamido)butanoyl)-N-(4-(((3S,5S)-1-((S)-3,3-dimethyl-2-((S)-2-(methylamino)propanamido)butanoyl)-5-(((R)-1,2,3,4-tetra-hydronaphthalen-1-yl)carbamoyl)pyrrolidin-3-yl)carbamoyl)benzyl)-N-((R)-1-(2-fluorophenyl)ethyl)-1,2,3,4-tetrahydro-isoquinoline-1-carboxamide] it is 1870 nM.
Next, `CN[C@@H](C)C(=O)N[C@H](C(=O)N1C[C@@H](NC(=O)n2ccc3cc(CN(C(=O)[C@@H]4Cc5ccccc5CN4C(=O)[C@@H](NC(=O)[C@H](C)NC)C(C)(C)C)C(COC)c4ccccc4)ccc32)C[C@H]1C(=O)N[C@@H]1CCCc2ccccc21)C(C)(C)C` (stereo in doubt) [Example 9, (S)-2-((S)-3,3-Dimethyl-2-((S)-2-(methylamino)propanamido)butanoyl)-N-((1-(((3S,5S)-1-((S)-3,3-dimethyl-2-((S)-2-(methylamino)propanamido)butanoyl)-5-(((R)-1,2,3,4-tetrahydronaphthalen-1-yl)carbamoyl)pyrrolidin-3-yl)carbamoyl)-1H-indol-5-yl)methyl)-N-((S)-2-methoxy-1-phenylethyl)-1,2,3,4-tetrahydroisoquinoline-3-carboxamide]: 340 nM; `CN[C@@H](C)C(=O)N[C@H](C(=O)N1C[C@@H](NC(=O)c2ccc(CN(C(=O)[C@@H]3Cc4ccccc4CN3C(=O)[C@@H](NC(=O)[C@H](C)NC)C(C)(C)C)[C@H](C)Cc3ccccc3F)cc2)C[C@H]1C(=O)N[C@@H]1CCCc2ccccc21)C(C)(C)C` [Example 25, (S)-2-((S)-3,3-Dimethyl-2-((S)-2-(methylamino)propanamido)butanoyl)-N-(4-(((3S,5S)-1-((S)-3,3-dimethyl-2-((S)-2-(methylamino)propanamido)butanoyl)-5-(((R)-1,2,3,4-tetrahydro-naphthalen-1-yl)carbamoyl)pyrrolidin-3-yl)carbamoyl)benzyl)-N-((R)-1-(2-fluorophenyl)propan-2-yl)-1,2,3,4-tetrahydro-isoquinoline-3-carboxamide]: 650 nM; `CN[C@@H](C)C(=O)N[C@H](C(=O)N1Cc2ccccc2C[C@H]1CN(CCc1cccc2ccccc12)C(=O)c1ccc(C(=O)N[C@H]2C[C@@H](C(=O)N[C@@H]3CCCc4ccccc43)N(C(=O)[C@@H](NC(=O)[C@H](C)NC)C(C)(C)C)C2)cc1)C(C)(C)C` [Example 33, N^1-(((S)-2-((S)-3,3-Dimethyl-2-((S)-2-(methylamino)propanamido)butanoyl)-1,2,3,4-tetrahydro-isoquinolin-3-yl)methyl)-N^4-((3S,5S)-1-((S)-3,3-dimethyl-2-((S)-2-(methylamino)propanamido)butanoyl)-5-(((R)-1,2,3,4-tetrahydro-naphthalen-1-yl)carbamoyl)pyrrolidin-3-yl)-N^1-(2-(naphthalen-1-yl)ethyl) terephthalamide]: 900 nM.
